In all, about 48,000 compounds went through this assay and about 1,200 (2.5%) were called active. Not shown: some 2% with an inconclusive outcome.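 The calls were made as follows: active = activation of at least 60% and not above a set upper limit (about 1 call in 100 departs from these limits); inconclusive = activation of 40% to 60%, or above that upper limit; inactive = activation under 40%.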 The list shows a part of the results.
Target: Probable G-protein coupled receptor 32 (Homo sapiens) (UniProt O75388)
Chain of UniProt O75388 (O75388 whole entry, looked up): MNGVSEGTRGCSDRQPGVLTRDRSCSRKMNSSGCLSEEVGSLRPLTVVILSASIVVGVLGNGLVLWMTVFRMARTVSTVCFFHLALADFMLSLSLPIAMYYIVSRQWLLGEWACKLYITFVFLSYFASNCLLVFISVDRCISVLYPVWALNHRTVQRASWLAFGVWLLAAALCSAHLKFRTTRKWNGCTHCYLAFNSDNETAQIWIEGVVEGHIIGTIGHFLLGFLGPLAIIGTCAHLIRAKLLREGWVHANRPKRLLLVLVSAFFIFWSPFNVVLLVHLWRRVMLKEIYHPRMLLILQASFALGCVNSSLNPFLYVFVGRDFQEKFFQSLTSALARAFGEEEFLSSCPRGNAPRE
Assay: qHTS for Agonists of Human Resolvin D1 Receptor DRV1; also: 0% is about no effect
Details: CHO-K1 GPR32 beta-arrestin PathHunter luminescence, 90 min; at 76.9 µM; stronger effect = higher value; zero percent set by DMSO-only wells
Procedure, shortened: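 Cells are plated overnight, treated with compounds in DMSO for 90 minutes at 37 °C, and developed with PathHunter detection reagent for 1 hour before luminescence is read; signal reflects beta-arrestin binding to GPR32 in engineered CHO-K1 cells.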

activation, inactive:
CCOC(=O)N1CCc2c(sc3c2c(=O)n(CCc2ccccc2)c(=O)n3Cc2ccc(F)cc2)C1 -19.5%
O=C(CSc1nc(-c2ccccc2)no1)N1CCCCC1 4.44%
COc1ccc(C(=O)CN2C(=O)N(c3ccc(C(C)=O)cc3)S(=O)(=O)c3ccccc32)cc1 1.33%
COc1ccc(S(=O)(=O)N2CCC(n3c(C(F)(F)F)nc4cccnc43)CC2)cc1OC -12.7%
Cc1ccc(Cn2nnc(C(=O)Nc3ccc(F)c(F)c3)c2N)cc1 -13.2%
Cc1ccc(N(C)C(=O)C2CCN(S(=O)(=O)c3ccc4c(c3)CCCN4C(=O)C3CCC3)CC2)cc1 -25%
CCOc1ccccc1-n1cc2c(c1-c1ccc(OC)cc1)c(=O)n(C)c(=O)n2C -11.8%
COc1ccc(NC(=O)c2cn(-c3ccccc3)nc2-c2ccc(C)cc2)cc1 -8.55%
COC(=O)c1ccc(NC(=O)CN2CCN(c3ccc(Cl)cc3)CC2)cc1 3.29%
O=C1CC(c2ccccc2)Cc2[nH]c(=O)c(C(=O)Nc3cccc(Cl)c3)cc21 (stereo not drawn) -7.59%
Cc1c(Cl)cccc1NC(=O)CN1C(=O)COc2ccc(S(=O)(=O)Nc3ccccc3)cc21 9.39%
CCOC(=O)c1cccc(NC(=O)C(C)n2c(C)c3cnn(-c4ccccc4)c(=O)c3c2C)c1 (stereo not drawn) 9.21%
COc1ccc(NC(=O)c2ccc3c(c2)CCN3S(=O)(=O)c2ccc(C)cc2)cc1Cl 0.0023%
O=C(CSc1nc2ccccc2nc1Cc1ccccc1)Nc1ccc2c(c1)OCO2 -4.67%
CCCOC(=O)CSc1nnc2ccc3ccccc3n12 -0.0061%
Cc1ccc(NC(=O)CN(C)S(=O)(=O)c2ccc3nc(C)sc3c2)c(C)c1 -15.5%
CCCSCCCNC(=O)c1ccc(Cn2c(=O)c3cccn3c3cccnc32)cc1 13.3%
COc1cc(NC(=O)CSc2nc3nc(C)c(Cc4ccc(C)cc4)c(C)n3n2)cc(OC)c1 -14.9%
FC(F)(F)C(F)(F)C(F)(F)C(F)(F)C(F)(F)C(F)(F)C(F)(F)C(F)(F)Br -7.92%
COc1ccc(Cl)cc1NC(=O)CCc1c(C)nc2c(c1C)c(=O)n(C)c(=O)n2C 17.8%
COc1ccc(-c2nc3sc(CCNC(=O)c4cc(Cl)ccc4OC)c(C)n3n2)cc1 23.5%
Cc1ccccc1NS(=O)(=O)c1ccc(Br)s1 -2.11%
CN(Cc1ccccc1)S(=O)(=O)c1ccc(F)c(C(=O)Nc2cccc(Cl)c2Cl)c1 -6.28%
CCN(CC)c1cc2c(cc1F)c(=O)c(S(=O)(=O)c1cc(C)ccc1C)cn2Cc1ccccc1 -18.2%
Cc1c(/C=C(\C#N)C(=O)Nc2cccc(Cl)c2)c2ccccc2n1Cc1ccccc1Cl -9.36%
CCOC(=O)c1c(NC(=O)c2ccc(S(=O)(=O)N(CCOC)CCOC)cc2)sc2c1CC(C)(C)NC2(C)C -32.1%
Cc1cccc(CC2C(=O)Nc3ccccc32)c1 (stereo not drawn) -10.7%
CCOc1ccccc1-n1nnc(-c2nc(-c3ccccc3)no2)c1N 0.317%
CCOc1ccc(C2=NC(c3cccs3)=Nc3ccc(C(C)C)cc3N2)cc1 -37.5%
CCOC(=O)c1cccc(NC(=O)C2CCN(S(=O)(=O)c3ccc4c(c3)oc(=O)n4C)CC2)c1 -7.92%
COc1ccc(S(=O)(=O)N(CCc2ccccc2)CC(=O)Nc2cccc(OC)c2)cc1 -14.7%
CCc1ccc(C(=O)COC(=O)C(Cc2c[nH]c3ccccc23)NC(=O)c2ccc(Br)cc2)cc1 (stereo not drawn) -6.78%
CCOc1ccc(C2c3cc(OCC)c(OCC)cc3CC(=O)N2c2ccc(C(=O)O)cc2)cc1OCC (stereo not drawn) -1.03%
COc1ccccc1N1CCN(c2ncnc3c2cnn3C)CC1 6.03%
COc1ccc(CCN2C(=O)c3oc4ccc(F)cc4c(=O)c3C2c2ccc(C(C)(C)C)cc2)cc1 (stereo not drawn) 16.9%
CCc1cccc(C)c1NC(=O)Cn1ccn(-c2ccc(F)cc2)c(=O)c1=O -5.46%
CCOc1ccc(C2CC(=O)c3c([nH]c(C(=O)OCc4ccccc4)c3C)C2)cc1 (stereo not drawn) 49.1%
Cc1nc2ccc(S(=O)(=O)N(C)CC(=O)Nc3ccc(Br)c(C)c3)cc2s1 23.9%
Cc1ccc(CNC(=O)c2cnc(N3CCCC3)nc2C)cc1 3.29%
CCc1ccccc1NC(=O)c1nnn(CC(=O)Nc2c(C)cc(C)cc2C)c1N -8.84%
Cc1cc(C)c2c(NC(=O)c3ccccc3Cl)c(C(=O)Nc3ccc(C)c(C)c3)sc2n1 -4.83%
COc1cc(CNCCSc2nnnn2C)ccc1OCc1ccccc1 7.2%
CCC1=Nc2cc(C(=O)NC3CCCC3)ccc2Sc2ccc(Cl)cc21 -13.9%
CCOC(=O)c1cc(S(=O)(=O)N2CCN(c3cccc(C)c3)C(C)C2)[nH]n1 (stereo not drawn) -4.53%
Cc1ccc2nc3sc(C(=O)Nc4ccc(F)cc4)cc3cc2c1 -3.28%
COC(=O)c1ccc(NC(=O)C(C)N2Cc3ccccc3C2=O)cc1 (stereo not drawn) -1.75%
COc1ccc(N2CCN(C(=O)c3c(C)oc4ncn(CC(C)C)c(=O)c34)CC2)cc1 -5.5%
O=C(COCc1cc(-c2ccc(F)cc2)on1)Nc1cc(Cl)cc(Cl)c1 -7.69%
COc1ccc(CCNC(=O)c2cc(-c3ccc(C)cc3)nc3n[nH]c(-c4ccc(F)cc4)c23)cc1OC -10.1%
CCc1ccccc1NC(=O)Cn1cc(C(=O)c2ccncc2)c(=O)c2cc(C)ccc21 -13.2%
O=C(CCSCCc1ccccn1)Nc1ccccc1C(F)(F)F -1.48%
O=C(CCSCc1cccc(F)c1)NCCc1ccccc1 15.6%
Cc1ccc(N2CC(C(=O)NCCS(=O)(=O)N3CCN(c4ccc(F)cc4)CC3)CC2=O)cc1 (stereo not drawn) -6.17%

From PubChem BioAssay AID1346428 (National Center for Advancing Translational Sciences (NCATS), 2018)
